From patent US7425576B2, “Compounds as inhibitors of hepatitis C virus NS3 serine protease” (Schering Corporation, priority 2004, dated 2008)

What follows are compounds tested against Recombinant heterodimeric HCV NS3/NS4A protease (strain 1a) (Hepatitis C virus genotype 1a, UniProt P27958) (assay: Spectrophotometric assay for HCV protease inhibitory activity (chromogenic ester substrates)). Details: Table 1, Ki* range class.
Assay type: biochemical
Excerpt: The present invention relates to novel HCV protease inhibitors. This utility can be manifested in their ability to inhibit the HCV NS2/NS4a serine protease.
Assay for HCV Protease Inhibitory Activity:
Spectrophotometric Assay: Spectrophotometric assay for the HCV serine protease can be performed on the inventive compounds by following the procedure described by R. Zhang et al, Analytical Biochemistry, 270 (1999) 268-275, the disclosure of which is incorporated herein by reference. The assay based on the proteolysis of chromogenic ester substrates is suitable for the continuous monitoring of HCV NS3 protease activity. The substrates are derived from the P side of the NS5A-NS5B junction sequence (Ac-DTEDVVX(Nva), where X=A or P) whose C-terminal carboxyl groups are esterified with one of four different chromophoric alcohols (3- or 4-nitrophenol, 7-hydroxy-4-methyl-coumarin, or 4-phenylazophenol). Illustrated below are the synthesis, characterization and application of these novel spectrophotometric ester substrates to high throughput screening and detailed kinetic evaluation of HCV NS3 protease inhibitors.
Protein concentrations are determined by the Biorad dye method using recombinant HCV protease standards previously quantified by amino acid analysis. Prior to assay initiation, the enzyme storage buffer (50 mM sodium phosphate pH 8.0, 300 mM NaCl, 10% glycerol, 0.05% lauryl maltoside and 10 mM DTT) is exchanged for the assay buffer (25 mM MOPS pH 6.5, 300 mM NaCl, 10% glycerol, 0.05% lauryl maltoside, 5 μM EDTA and 5 μM DTT) utilizing a Biorad Bio-Spin P-6 prepacked column.
Protease Assay: HCV protease assays are performed at 30° C. using a 200 μl reaction mix in a 96-well microtiter plate. Assay buffer conditions (25 mM MOPS pH 6.5, 300 mM NaCl, 10% glycerol, 0.05% lauryl maltoside, 5 μM EDTA and 5 μM DTT) are optimized for the NS3/NS4A heterodimer (D. L. Sali et al, ibid.)). Typically, 150 μl mixtures of buffer, substrate and inhibitor are placed in wells (final concentration of DMSO≦4% v/v) and allowed to preincubate at 30° C. for approximately 3 minutes. Fifty μls of prewarmed protease (12 nM, 30° C.) in assay buffer, is then used to initiate the reaction (final volume 200 μl).The plates are monitored over the length of the assay (60 minutes) for change in absorbance at the appropriate wavelength (340 nm for 3-Np and HMC, 370 nm for PAP, and 400 nm for 4-Np) using a Spectromax Plus microtiter plate reader equipped with a monochrometer (acceptable results can be obtained with plate readers that utilize cutoff filters). Proteolytic cleavage of the ester linkage between the Nva and the chromophore is monitored at the appropriate wavelength against a no enzyme blank as a control for non-enzymatic hydrolysis. The evaluation of substrate kinetic parameters is performed over a 30-fold substrate concentration range (˜6-200 μM). Initial velocities are determined using linear regression and kinetic constants are obtained by fitting the data to the Michaelis-Menten equation using non-linear regression analysis (Mac Curve Fit 1.1, K. Raner). Turnover numbers (kcat) are calculated assuming the enzyme is fully active.
Evaluation of Inhibitors and Inactivators: The inhibition constants (Ki) for the competitive inhibitors Ac-D-(D-Gla)-L-I-(Cha)-C—OH (27), Ac-DTEDVVA(Nva)-OH and Ac-DTEDVVP(Nva)-OH are determined experimentally at fixed concentrations of enzyme and substrate by plotting vo/vi vs. inhibitor concentration ([I]o) according to the rearranged Michaelis-Menten equation for competitive inhibition kinetics: vo/vi=1+[I]o/(Ki(1+[S]o/Km)), where vo is the uninhibited initial velocity, vi is the initial velocity in the presence of inhibitor at any given inhibitor concentration ([I]o) and [S]o is the substrate concentration used.

SMILES	Ki
C=CCNC(=O)C(=O)C(CCC)NC(=O)[C@@H]1[C@@H]2[C@H](CN1C(=O)[C@@H](NC(=O)NC(COC(=O)NCC)C(C)(C)C)C1Cc3ccccc3C1)C2(C)C (stereo in doubt) [Example 1023]	< 0.075 µM
C=CCNC(=O)C(=O)C(CCC)NC(=O)[C@@H]1[C@@H]2[C@H](CN1C(=O)[C@@H](NC(=O)N[C@H](COC(=O)NCC1CC1)C(C)(C)C)C(C)(C)C)C2(C)C (stereo in doubt) [Example 1029]	< 0.075 µM
CC(C)(C)[C@H](NC(=O)N[C@H](COC(=O)Nc1ccccc1)C(C)(C)C)C(=O)N1C[C@H]2[C@@H]([C@H]1C(=O)NC(CC1CC1)C(=O)C(N)=O)C2(C)C (stereo partly drawn) [Example 1006]	< 0.075 µM
CC(C)NC(=O)OC[C@@H](NC(=O)N[C@H](C(=O)N1C[C@H]2[C@@H]([C@H]1C(=O)NC(CC1CCC1)C(=O)C(N)=O)C2(C)C)C1Cc2ccccc2C1)C(C)C (stereo partly drawn) [Example 1007]	< 0.075 µM
CC(C)NC(=O)OC[C@@H](NC(=O)N[C@H](C(=O)N1C[C@H]2[C@@H]([C@H]1C(=O)NC(CC1CC1)C(=O)C(N)=O)C2(C)C)C1Cc2ccccc2C1)C(C)C (stereo partly drawn) [Example 1008]	< 0.075 µM
CC(C)[C@@H](COC(=O)NC(C)(C)C)NC(=O)N[C@H](C(=O)N1C[C@H]2[C@@H]([C@H]1C(=O)NC(CC1CC1)C(=O)C(N)=O)C2(C)C)C1Cc2ccccc2C1 (stereo partly drawn) [Example 1009]	< 0.075 µM
CC(C)[C@@H](COC(=O)NC(C)(C)C)NC(=O)N[C@H](C(=O)N1C[C@H]2[C@@H]([C@H]1C(=O)NC(CC1CCC1)C(=O)C(N)=O)C2(C)C)C1Cc2ccccc2C1 (stereo partly drawn) [Example 1010]	< 0.075 µM
C=CCNC(=O)C(=O)C(CC1CC1)NC(=O)[C@@H]1[C@@H]2[C@H](CN1C(=O)[C@@H](NC(=O)N[C@H](COC(=O)NC(C)C)C(C)(C)C)C1Cc3ccccc3C1)C2(C)C (stereo partly drawn) [Example 1011]	< 0.075 µM
C=CCNC(=O)C(=O)C(CCC)NC(=O)[C@@H]1[C@@H]2[C@H](CN1C(=O)[C@@H](NC(=O)N[C@H](COC(=O)NC(C)C)C(C)(C)C)C1Cc3ccccc3C1)C2(C)C (stereo partly drawn) [Example 1012]	< 0.075 µM
CC(C)NC(=O)OC[C@@H](NC(=O)N[C@H](C(=O)N1C[C@H]2[C@@H]([C@H]1C(=O)NC(CC1CC1)C(=O)C(N)=O)C2(C)C)C1Cc2ccccc2C1)C(C)(C)C (stereo partly drawn) [Example 1013]	< 0.075 µM
CC(C)NC(=O)OC[C@@H](NC(=O)N[C@H](C(=O)N1C[C@H]2[C@@H]([C@H]1C(=O)NC(CC1CCC1)C(=O)C(N)=O)C2(C)C)C1Cc2ccccc2C1)C(C)(C)C (stereo partly drawn) [Example 1014]	< 0.075 µM
C=CCNC(=O)C(=O)C(CCC(F)(F)F)NC(=O)[C@@H]1[C@@H]2[C@H](CN1C(=O)[C@@H](NC(=O)N[C@H](COC(=O)NC(C)C)C(C)(C)C)C1Cc3ccccc3C1)C2(C)C (stereo partly drawn) [Example 1015]	< 0.075 µM
C=CCNC(=O)C(=O)C(CCC)NC(=O)[C@@H]1[C@@H]2[C@H](CN1C(=O)[C@@H](NC(=O)N[C@H](COC(=O)Nc1ccccc1)C(C)(C)C)C(C)(C)C)C2(C)C (stereo partly drawn) [Example 1016]	< 0.075 µM
C=CCNC(=O)C(=O)C(CCC)NC(=O)[C@@H]1[C@@H]2[C@H](CN1C(=O)[C@@H](NC(=O)N[C@H](COC(=O)NC(C)(C)C)C(C)C)C(C)(C)C)C2(C)C (stereo partly drawn) [Example 1017]	< 0.075 µM
C=CCNC(=O)C(=O)C(CCC)NC(=O)[C@@H]1[C@@H]2[C@H](CN1C(=O)[C@@H](NC(=O)N[C@H](COC(=O)NC(C)(C)C)C(C)(C)C)C(C)(C)C)C2(C)C (stereo partly drawn) [Example 1018]	< 0.075 µM
CC(C)[C@@H](COC(=O)NCC1CC1)NC(=O)N[C@H](C(=O)N1C[C@H]2[C@@H]([C@H]1C(=O)NC(CC1CC1)C(=O)C(N)=O)C2(C)C)C(C)(C)C (stereo partly drawn) [Example 1019]	< 0.075 µM

SMILES	Ki
CC(C)[C@@H](COC(=O)NCC1CC1)NC(=O)N[C@H](C(=O)N1C[C@H]2[C@@H]([C@H]1C(=O)NC(CC1CCC1)C(=O)C(N)=O)C2(C)C)C(C)(C)C (stereo partly drawn) [Example 1020]	< 0.075 µM
C=CCNC(=O)C(=O)C(CCC)NC(=O)[C@@H]1[C@@H]2[C@H](CN1C(=O)[C@@H](NC(=O)N[C@H](COC(=O)NCC1CC1)C(C)C)C(C)(C)C)C2(C)C (stereo partly drawn) [Example 1021]	< 0.075 µM
C=CCNC(=O)C(=O)C(CC1CC1)NC(=O)[C@@H]1[C@@H]2[C@H](CN1C(=O)[C@@H](NC(=O)NC(COC(=O)NCC)C(C)(C)C)C1Cc3ccccc3C1)C2(C)C (stereo partly drawn) [Example 1022]	< 0.075 µM
CCNC(=O)OC[C@@H](NC(=O)N[C@H](C(=O)N1C[C@H]2[C@@H]([C@H]1C(=O)NC(CC1CC1)C(=O)C(N)=O)C2(C)C)C1Cc2ccccc2C1)C(C)(C)C (stereo partly drawn) [Example 1024]	< 0.075 µM
CCNC(=O)OC[C@@H](NC(=O)N[C@H](C(=O)N1C[C@H]2[C@@H]([C@H]1C(=O)NC(CC1CCC1)C(=O)C(N)=O)C2(C)C)C1Cc2ccccc2C1)C(C)(C)C (stereo partly drawn) [Example 1025]	< 0.075 µM
C=CCNC(=O)C(=O)C(CCC(F)(F)F)NC(=O)[C@@H]1[C@@H]2[C@H](CN1C(=O)[C@@H](NC(=O)N[C@H](COC(=O)NCC)C(C)(C)C)C1Cc3ccccc3C1)C2(C)C (stereo partly drawn) [Example 1026]	< 0.075 µM
CC(C)(C)[C@H](NC(=O)N[C@H](COC(=O)NCC1CC1)C(C)(C)C)C(=O)N1C[C@H]2[C@@H]([C@H]1C(=O)NC(CC1CC1)C(=O)C(N)=O)C2(C)C (stereo partly drawn) [Example 1027]	< 0.075 µM
CC(C)(C)[C@H](NC(=O)N[C@H](COC(=O)NCC1CC1)C(C)(C)C)C(=O)N1C[C@H]2[C@@H]([C@H]1C(=O)NC(CC1CCC1)C(=O)C(N)=O)C2(C)C (stereo partly drawn) [Example 1028]	< 0.075 µM
C=CCNC(=O)C(=O)C(CC1CC1)NC(=O)[C@@H]1[C@@H]2[C@H](CN1C(=O)[C@@H](NC(=O)N[C@H](COC(=O)NC(C)(C)C)C(C)(C)C)C1Cc3ccccc3C1)C2(C)C (stereo partly drawn) [Example 1030]	< 0.075 µM
C=CCNC(=O)C(=O)C(CCC)NC(=O)[C@@H]1[C@@H]2[C@H](CN1C(=O)[C@@H](NC(=O)N[C@H](COC(=O)NC(C)(C)C)C(C)(C)C)C1Cc3ccccc3C1)C2(C)C (stereo partly drawn) [Example 1031]	< 0.075 µM
CC(C)(C)NC(=O)OC[C@@H](NC(=O)N[C@H](C(=O)N1C[C@H]2[C@@H]([C@H]1C(=O)NC(CC1CC1)C(=O)C(N)=O)C2(C)C)C1Cc2ccccc2C1)C(C)(C)C (stereo partly drawn) [Example 1032]	< 0.075 µM
CC(C)(C)NC(=O)OC[C@@H](NC(=O)N[C@H](C(=O)N1C[C@H]2[C@@H]([C@H]1C(=O)NC(CC1CCC1)C(=O)C(N)=O)C2(C)C)C1Cc2ccccc2C1)C(C)(C)C (stereo partly drawn) [Example 1033]	< 0.075 µM
CN(C)C(=O)OC[C@@H](NC(=O)N[C@H](C(=O)N1C[C@H]2[C@@H]([C@H]1C(=O)NC(CC1CCC1)C(=O)C(N)=O)C2(C)C)C1Cc2ccccc2C1)C(C)(C)C (stereo partly drawn) [Example 1034]	< 0.075 µM
CN(C)C(=O)OC[C@@H](NC(=O)N[C@H](C(=O)N1C[C@H]2[C@@H]([C@H]1C(=O)NC(CC1CC1)C(=O)C(N)=O)C2(C)C)C1Cc2ccccc2C1)C(C)(C)C (stereo partly drawn) [Example 1035]	< 0.075 µM
CCCC(NC(=O)[C@@H]1[C@@H]2[C@H](CN1C(=O)[C@@H](NC(=O)N[C@H](COC(=O)N(C)C)C(C)(C)C)C1Cc3ccccc3C1)C2(C)C)C(=O)C(N)=O (stereo partly drawn) [Example 1036]	< 0.075 µM
C=CCNC(=O)C(=O)C(CCC)NC(=O)[C@@H]1[C@@H]2[C@H](CN1C(=O)[C@@H](NC(=O)N[C@H](COC(=O)N(C)C)C(C)(C)C)C1Cc3ccccc3C1)C2(C)C (stereo partly drawn) [Example 1037]	0.075 to 0.25 µM

Same assay, conditions: Table 3, Ki* range class

SMILES	Ki
CC(C)(COCc1ccccc1)NC(=O)N[C@H](C(=O)N1C[C@H]2[C@@H]([C@H]1C(=O)NC(CC1CC1)C(=O)C(N)=O)C2(C)C)C(C)(C)C (mixture of isomers) [Example 1629]	0.075 to 0.25 µM
CC(C)(C)OC[C@H](NC(=O)N[C@H](C(=O)N1C[C@H]2[C@@H]([C@H]1C(=O)NC(CC1CCC1)C(=O)C(N)=O)C2(C)C)C(C)(C)C)C(C)(C)C (stereo in doubt) [Example 1610]	< 0.075 µM

Same assay, conditions: Table 6, numeric Ki*

SMILES	Ki
C=CCNC(=O)C(=O)C(CCC)NC(=O)[C@@H]1[C@@H]2[C@H](CN1C(=O)[C@@H](NC(=O)NC(COC(=O)NCC)C(C)(C)C)C1Cc3ccccc3C1)C2(C)C (stereo in doubt) [Example 1023]	0.033 µM
C=CCNC(=O)C(=O)C(CCC)NC(=O)[C@@H]1[C@@H]2[C@H](CN1C(=O)[C@@H](NC(=O)N[C@H](COC(=O)NCC1CC1)C(C)(C)C)C(C)(C)C)C2(C)C (stereo in doubt) [Example 1029]	0.014 µM
C=CCNC(=O)C(=O)C(CCC)NC(=O)[C@@H]1[C@@H]2[C@H](CN1C(=O)[C@@H](NC(=O)N[C@H](COC(=O)NC(C)C)C(C)(C)C)C1Cc3ccccc3C1)C2(C)C (stereo partly drawn) [Example 1012]	0.04 µM
CCNC(=O)OC[C@@H](NC(=O)N[C@H](C(=O)N1C[C@H]2[C@@H]([C@H]1C(=O)NC(CC1CC1)C(=O)C(N)=O)C2(C)C)C1Cc2ccccc2C1)C(C)(C)C (stereo partly drawn) [Example 1024]	0.0073 µM
CCNC(=O)OC[C@@H](NC(=O)N[C@H](C(=O)N1C[C@H]2[C@@H]([C@H]1C(=O)NC(CC1CCC1)C(=O)C(N)=O)C2(C)C)C1Cc2ccccc2C1)C(C)(C)C (stereo partly drawn) [Example 1025]	0.0067 µM
